Like-named read-outs stand apart in the source and are kept apart here. These are yes or no findings as the source states them, for the method shown. For some of these results: In cells and extracts the contact can be indirect. Some binding calls cover weakened binding; strength is not graded here. For some of these results: Where a sequence is shown, tags or fusion partners need not be part of it.
Columns and labels:
[1] = target: T1, 3XMyc tagged MKRN3 (human) (UniProt Q13064); experiment: co-IP; MKRN3 and PABP co-expressed in HEK293T; lysates in COIP buffer (50 mM Tris-HCl, 150 mM NaCl, 5 mM EDTA, 1% NP-40, pH 7.6) with or without RNaseA (50 μg/ml); anti-Myc antibody, immunoblot with anti-Myc or anti-Flag
T1 sequence: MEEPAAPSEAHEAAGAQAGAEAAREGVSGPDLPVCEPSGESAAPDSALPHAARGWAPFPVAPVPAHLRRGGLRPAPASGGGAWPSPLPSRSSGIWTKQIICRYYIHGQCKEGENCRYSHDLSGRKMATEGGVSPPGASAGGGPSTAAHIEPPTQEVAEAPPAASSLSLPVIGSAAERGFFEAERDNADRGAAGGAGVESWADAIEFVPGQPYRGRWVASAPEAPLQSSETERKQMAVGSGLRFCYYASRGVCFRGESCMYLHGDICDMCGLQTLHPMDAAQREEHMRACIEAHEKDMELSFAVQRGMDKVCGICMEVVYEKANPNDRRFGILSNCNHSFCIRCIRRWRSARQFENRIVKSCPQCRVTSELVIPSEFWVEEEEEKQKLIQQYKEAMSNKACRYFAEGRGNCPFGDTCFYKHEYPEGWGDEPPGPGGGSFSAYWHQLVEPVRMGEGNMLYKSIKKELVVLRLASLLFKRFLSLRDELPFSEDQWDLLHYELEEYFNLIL

Sequences of proteins named here, by UniProt entry; tags and fusion partners are left off.
UniProt P29341: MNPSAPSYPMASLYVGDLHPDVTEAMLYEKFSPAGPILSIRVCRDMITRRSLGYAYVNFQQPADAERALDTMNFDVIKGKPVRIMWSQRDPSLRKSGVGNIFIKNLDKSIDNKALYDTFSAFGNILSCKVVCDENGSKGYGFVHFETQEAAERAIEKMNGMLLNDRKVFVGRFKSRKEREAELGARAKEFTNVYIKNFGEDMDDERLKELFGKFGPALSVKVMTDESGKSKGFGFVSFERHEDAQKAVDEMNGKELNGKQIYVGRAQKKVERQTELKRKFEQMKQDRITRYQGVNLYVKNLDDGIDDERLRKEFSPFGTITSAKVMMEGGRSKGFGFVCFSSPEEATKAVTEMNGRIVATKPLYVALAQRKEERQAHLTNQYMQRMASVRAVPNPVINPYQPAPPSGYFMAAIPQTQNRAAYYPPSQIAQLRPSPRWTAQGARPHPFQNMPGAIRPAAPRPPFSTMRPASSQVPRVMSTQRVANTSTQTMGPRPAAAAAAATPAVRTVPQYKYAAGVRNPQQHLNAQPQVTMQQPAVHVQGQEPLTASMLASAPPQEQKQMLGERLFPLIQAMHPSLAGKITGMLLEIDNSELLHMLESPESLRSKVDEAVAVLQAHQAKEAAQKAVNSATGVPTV
UniProt P11940: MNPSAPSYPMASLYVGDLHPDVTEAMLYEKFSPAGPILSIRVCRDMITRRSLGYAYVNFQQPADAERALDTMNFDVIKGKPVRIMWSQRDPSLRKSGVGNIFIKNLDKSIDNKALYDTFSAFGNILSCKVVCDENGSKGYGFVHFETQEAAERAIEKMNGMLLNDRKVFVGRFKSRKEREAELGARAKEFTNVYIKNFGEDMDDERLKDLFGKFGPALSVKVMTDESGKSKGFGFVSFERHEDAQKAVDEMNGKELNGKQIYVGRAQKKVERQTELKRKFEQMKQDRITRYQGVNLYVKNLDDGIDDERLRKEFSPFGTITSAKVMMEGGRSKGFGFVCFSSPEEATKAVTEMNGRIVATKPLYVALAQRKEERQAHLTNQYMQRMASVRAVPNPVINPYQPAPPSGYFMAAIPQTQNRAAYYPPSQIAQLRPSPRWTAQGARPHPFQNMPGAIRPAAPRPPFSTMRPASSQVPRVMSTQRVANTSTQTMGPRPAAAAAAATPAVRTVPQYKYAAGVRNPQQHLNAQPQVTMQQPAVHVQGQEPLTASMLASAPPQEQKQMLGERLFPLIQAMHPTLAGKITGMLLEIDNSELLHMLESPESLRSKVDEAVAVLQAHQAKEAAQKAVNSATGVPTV
UniProt Q9H361: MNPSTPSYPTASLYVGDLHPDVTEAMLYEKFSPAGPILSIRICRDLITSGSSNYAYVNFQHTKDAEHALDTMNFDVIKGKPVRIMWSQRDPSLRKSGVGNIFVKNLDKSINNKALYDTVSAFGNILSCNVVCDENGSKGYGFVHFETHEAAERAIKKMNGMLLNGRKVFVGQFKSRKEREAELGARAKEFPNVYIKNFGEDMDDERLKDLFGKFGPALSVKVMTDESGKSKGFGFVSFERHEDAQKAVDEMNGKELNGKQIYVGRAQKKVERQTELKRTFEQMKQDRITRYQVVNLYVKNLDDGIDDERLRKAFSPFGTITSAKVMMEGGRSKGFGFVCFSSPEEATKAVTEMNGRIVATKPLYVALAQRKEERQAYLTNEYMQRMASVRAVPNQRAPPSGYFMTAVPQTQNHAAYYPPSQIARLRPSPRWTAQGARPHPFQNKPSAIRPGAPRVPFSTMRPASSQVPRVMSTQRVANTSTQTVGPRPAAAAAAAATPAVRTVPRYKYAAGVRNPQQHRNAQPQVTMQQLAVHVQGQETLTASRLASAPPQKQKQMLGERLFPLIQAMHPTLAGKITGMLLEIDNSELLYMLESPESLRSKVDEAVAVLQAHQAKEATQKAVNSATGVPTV
UniProt Q96DU9: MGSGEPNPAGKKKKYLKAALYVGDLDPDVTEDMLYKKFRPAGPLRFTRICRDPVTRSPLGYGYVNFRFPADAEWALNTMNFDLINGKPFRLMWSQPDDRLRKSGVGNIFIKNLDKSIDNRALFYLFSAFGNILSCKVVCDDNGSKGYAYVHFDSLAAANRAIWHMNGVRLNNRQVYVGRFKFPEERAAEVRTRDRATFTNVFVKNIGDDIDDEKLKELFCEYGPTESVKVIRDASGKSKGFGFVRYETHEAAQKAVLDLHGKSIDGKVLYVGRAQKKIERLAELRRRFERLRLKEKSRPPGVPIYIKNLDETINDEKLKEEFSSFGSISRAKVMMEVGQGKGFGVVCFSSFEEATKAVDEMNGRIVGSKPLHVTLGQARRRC
UniProt Q6NZJ6: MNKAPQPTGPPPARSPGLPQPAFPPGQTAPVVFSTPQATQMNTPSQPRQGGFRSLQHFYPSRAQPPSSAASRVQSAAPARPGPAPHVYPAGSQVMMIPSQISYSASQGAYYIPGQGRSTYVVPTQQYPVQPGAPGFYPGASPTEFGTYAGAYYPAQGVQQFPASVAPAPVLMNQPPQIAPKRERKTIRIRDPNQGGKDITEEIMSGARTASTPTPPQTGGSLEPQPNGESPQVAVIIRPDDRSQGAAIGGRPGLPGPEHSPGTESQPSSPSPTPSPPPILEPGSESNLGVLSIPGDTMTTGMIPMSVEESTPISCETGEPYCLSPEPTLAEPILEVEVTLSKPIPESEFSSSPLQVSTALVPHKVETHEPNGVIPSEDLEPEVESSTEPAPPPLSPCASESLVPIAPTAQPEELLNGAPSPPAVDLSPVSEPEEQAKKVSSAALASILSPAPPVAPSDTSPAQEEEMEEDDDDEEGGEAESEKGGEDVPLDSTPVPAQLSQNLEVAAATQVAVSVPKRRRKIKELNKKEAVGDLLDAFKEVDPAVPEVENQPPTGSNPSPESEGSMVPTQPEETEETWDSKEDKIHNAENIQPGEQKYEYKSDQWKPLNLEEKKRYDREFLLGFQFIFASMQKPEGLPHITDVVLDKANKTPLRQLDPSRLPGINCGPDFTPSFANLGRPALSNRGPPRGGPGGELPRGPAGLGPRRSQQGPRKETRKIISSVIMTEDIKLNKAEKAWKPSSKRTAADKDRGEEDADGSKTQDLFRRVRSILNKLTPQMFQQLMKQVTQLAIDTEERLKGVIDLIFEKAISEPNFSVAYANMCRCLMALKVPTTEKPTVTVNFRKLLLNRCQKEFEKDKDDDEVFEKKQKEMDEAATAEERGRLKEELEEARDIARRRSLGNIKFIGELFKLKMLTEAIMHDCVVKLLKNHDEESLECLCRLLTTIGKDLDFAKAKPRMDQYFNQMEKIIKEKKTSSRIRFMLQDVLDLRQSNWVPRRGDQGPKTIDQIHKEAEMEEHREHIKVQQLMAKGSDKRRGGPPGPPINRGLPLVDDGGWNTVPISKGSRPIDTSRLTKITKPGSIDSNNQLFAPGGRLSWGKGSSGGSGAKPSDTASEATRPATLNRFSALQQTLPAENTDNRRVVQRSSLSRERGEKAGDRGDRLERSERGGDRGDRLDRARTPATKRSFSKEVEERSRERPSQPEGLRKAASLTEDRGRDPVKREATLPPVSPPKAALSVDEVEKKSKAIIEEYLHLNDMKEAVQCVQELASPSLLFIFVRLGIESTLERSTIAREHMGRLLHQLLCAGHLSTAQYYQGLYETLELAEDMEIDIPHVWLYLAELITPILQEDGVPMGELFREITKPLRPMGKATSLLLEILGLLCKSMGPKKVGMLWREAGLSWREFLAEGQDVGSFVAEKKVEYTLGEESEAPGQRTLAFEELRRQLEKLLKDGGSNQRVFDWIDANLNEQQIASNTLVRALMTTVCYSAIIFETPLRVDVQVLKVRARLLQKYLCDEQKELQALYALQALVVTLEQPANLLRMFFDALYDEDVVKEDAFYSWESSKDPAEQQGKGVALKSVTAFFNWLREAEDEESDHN

Gst-MKRN1 = target: T2, Gst-MKRN1 (UniProt Q9UHC7); experiment: pull-down; GST pull-down: 20 μg purified Gst-MKRN or MKRN3 truncation, 20 μg PABP-His6 or truncation and Glutathione Sepharose 4B, 4°C overnight in 500 μl of 20 mM Tris-Cl, 100 mM NaCl, 5 mM MgCl2, 1 mM EDTA, 1 mM DTT, 0.5% NP-40, 10 μg/ml BSA, pH 7.5; five washes; Coomassie staining and anti-His immunoblot; both purified
T2 sequence: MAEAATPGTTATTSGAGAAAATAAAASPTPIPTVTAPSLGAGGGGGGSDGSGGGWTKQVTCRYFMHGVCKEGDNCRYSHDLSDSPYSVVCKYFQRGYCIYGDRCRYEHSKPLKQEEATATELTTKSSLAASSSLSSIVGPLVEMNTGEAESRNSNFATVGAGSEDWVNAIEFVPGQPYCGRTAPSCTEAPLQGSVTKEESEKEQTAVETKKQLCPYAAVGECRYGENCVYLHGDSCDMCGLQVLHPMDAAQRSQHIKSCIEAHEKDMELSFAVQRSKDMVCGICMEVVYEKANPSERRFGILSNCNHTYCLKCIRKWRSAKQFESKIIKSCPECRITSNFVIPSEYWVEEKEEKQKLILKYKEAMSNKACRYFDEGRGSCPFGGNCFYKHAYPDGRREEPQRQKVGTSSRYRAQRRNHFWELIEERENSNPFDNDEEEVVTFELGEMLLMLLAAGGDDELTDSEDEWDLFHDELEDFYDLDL

[2] = target: T3, recombinant Gst-tagged MKRN3 (human) (UniProt Q13064); experiment: as above
T3 sequence: T1 sequence

[3] = target: endogenous PABPC1 (mouse hypothalamus) (mouse (endogenous in hypothalamus)) (UniProt P29341); experiment: co-IP; endogenous proteins; hypothalamic lysates of mice at postnatal day 15 (wild-type; for EIF4G1 also Mkrn3 m+/p- mice), with or without RNaseA (50 μg/ml); precipitated with anti-PABPC1 antibody (anti-IgG as control), immunoblot
[4] = target: endogenous PABPC1 (mouse hypothalamus) (mouse (endogenous in hypothalamus)) (UniProt P29341); experiment: as above; remark: listed apart in the source

In the case of “Flag-tagged PABPC1 (from UniProt P11940 1-636)”, the binding [1] is reported as “binds”.

For “Flag-tagged PABPC3 (from UniProt Q9H361 1-631)”, the binding [1] was “binds”.

For PABPC1-His6 (from UniProt P11940 1-636), the binding (Gst-MKRN1) was “binds”.

For PABPC5-His6 (from UniProt Q96DU9 1-382), the binding [2] was “no binding (tested: 20 μg of each protein in 500 μl)”.

“endogenous EIF4G1 (mouse hypothalamus) (from UniProt Q6NZJ6 1-1600)” was tested, and the binding [3] was “binds”.

B1: endogenous Mkrn3 (mouse hypothalamus) (protein, UniProt Q60764 1-544)
chain: MEESTAPIEAHAAAGAEAGAEGGEGVSVPPPPQFEAAGASAGVSSAPLQQASGLAPLLVTPGPAIRRAASLRPAPAEGGGARSGPERNSGSWTKQILCRYYLHGQCKEGDNCRYSHDLSGRRRSRGGQDAQPRASADRGPKMATRWEPPTQEVAEAPPAASSSSLPLIGSAAERGFTEAEIDNAGIRSAAERGFSEAEIDNASLAAGAAAGAGAEGWEGAIEFVPGQPYRGRMVPPHGPEAPLQSPAIEREHMAMGMGMPMPVPMPMPVPMPVPMPLPLCRYAARGQCLRGDRCAYPHGEICDMCGQQALHPWDAAQQEAHRRACVEAHERDMELSFAVQRSMDKVCGICMEVVYEKADPSDRRFGILFSCNHTYCLRCIRRWRSATQFENRISKSCPQCRVSSGFVIPSEFWVEEEEEKEKLVQQYKEGMSQKACRYFAGGLGHCPFGEFCFYKHEYPEGWRDQPPRPDGGGSSSAYWHQVLEPVQLREGNVLFKSRKKEHSVLRLANQLLKKLLCLRGSSSFSDDRWLLLQYQLEEYFSLNL
In the case of B1, the binding [4] is reported as “binds”.

B2: exogenously expressed PABPN1 (protein, UniProt Q86U42 1-306)
chain: MAAAAAAAAAAGAAGGRGSGPGRRRHLVPGAGGEAGEGAPGGAGDYGNGLESEELEPEELLLEPEPEPEPEEEPPRPRAPPGAPGPGPGSGAPGSQEEEEEPGLVEGDPGDGAIEDPELEAIKARVREMEEEAEKLKELQNEVEKQMNMSPPPGNAGPVIMSIEEKMEADARSIYVGNVDYGATAEELEAHFHGCGSVNRVTILCDKFSGHPKGFAYIEFSDKESVRTSLALDESLFRGRQIKVIPKRTNRPGISTTDRGFPRARYRARTTNYNSSRSRFYSGFNSRPRGRVYRGRARATSWYSPY
For B2, the binding [1] was “no binding”.
